# In all, about 420,000 compounds went through this assay and about 50,000 (12%) were called active. The inconclusive results got no clear call from the source; some entries with a clear call stand among them for comparison. Calls follow the shape of the dose curve; as a rule, active = well fitted inhibition curve with a large enough effect; inconclusive = small, poorly fitted or top-dose-only effect; inactive = flat fitted curve, though single readings scatter. No potency is given beside an inconclusive call; the fits are too rough.
# Assay: qHTS for Inhibitors of human tyrosyl-DNA phosphodiesterase 1 (TDP1): qHTS in cells in presence of CPT; also: nearly all actives have a fitted effect of over 55% in size
# Conditions: chicken DT40 Tdp1-/-;hTDP1 cells + 20 nM CPT, ATP luminescence, 48 h; activity change, negative = growth inhibition: at 46.2 µM (top of the series) unless noted
# Procedure, shortened: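 Chicken DT40 Tdp1-/- cells complemented with human TDP1, 400 cells/well, exposed to compounds plus 20 nM camptothecin for at least 48 h at 37 C; viability read as ATP content by CellTiter-Glo luminescence.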
# % is scaled to controls: 0 for no effect and ±100 for the full control effect; potency is read from the fitted curve at half-maximal effect; tags tell the direction and shape of the fitted curve.
Structure (SMILES),"activity change, negative = growth inhibition",Potency
CCOc1cccc(C(=O)NC2CCCCC2)c1,inactive: -18.7%,
COc1ccc(CCNC(=O)Cc2nn(C)c(=O)c3ccccc23)cc1OC,,"inconclusive [inhibitor, partial curve]"
CCN(CC)CCC(c1cc(OC)c(OC)c(OC)c1)c1c(O)cc(OC)cc1OC (stereo not given),,"inconclusive [inhibitor, single point]"
Cn1c(=O)n(-c2ccc(C(C)(C)C#N)cc2)c2c3cc(-c4cnc5ccccc5c4)ccc3ncc21,,active: 0.251 µM
O=C(COC(=O)c1ccc([N+](=O)[O-])s1)c1ccc[nH]1,,"inconclusive [inhibitor, single point]"
O=C(O)C1CCN(S(=O)(=O)c2ccc(N3CCCC3C(=O)O)c([N+](=O)[O-])c2)CC1 (stereo not given),inactive: -3.6%,
COc1cccc(-c2ccc3ncnc(NCCNC(C)=O)c3c2)c1,,active: 14.6 µM
CSc1cccc(NC(=O)C2CCCN(c3ncnc4c3nc3n4CCCCC3)C2)c1 (stereo not given),,"inconclusive [inhibitor, single point]"
O=C(c1ccc(Cl)cc1)c1cn[nH]c1-c1ccccc1O,,"inconclusive [inhibitor, single point]"
Cc1nc(C)c(CC(=O)N2CCOc3ccc(CN4CCN(c5ccccn5)CC4)cc3C2)s1,,"inconclusive [inhibitor, single point]"
O=C(O)CCCNc1ccc([N+](=O)[O-])c(NCCCC(=O)O)n1,inactive: -0.241%,
COc1cc(/C=C/C(=O)OCC(=O)NNC(=O)c2cc(Cl)ccc2OC)ccc1O,,"inconclusive [inhibitor, single point]"
CC(C)(C)OC(=O)C(C1NC(C(=O)O)C(C)(C)S1)N1C(=O)c2ccccc2C1=O (stereo not given),inactive: 9.46%,
N#Cc1ccc(OCC(=O)NCCCn2ccnc2)cc1,inactive: 0.0772%,
Cc1nn2c(NCc3cccnc3)c3c(nc2c1-c1ccccc1)CCC3,,"inconclusive [inhibitor, single point]"
CCOC(=O)c1c(C)[nH]c(C(=O)C(C)OC(=O)c2cccc(OCc3c(C)noc3C)c2)c1C (stereo not given),,active: 20.6 µM
CCOC(=O)C1=C(C)NC(C)=C(C(=O)OCC)C1c1ccccc1/C=C/C(=O)OC(C)(C)C,,"inconclusive [inhibitor, full curve]"
Cc1ccsc1-c1nc(C(N)=O)c2[nH]c(=O)n(-c3ccc(Cl)cc3)c2n1,,active: 5.8 µM
Cn1c(=O)n(C/C=C/c2ccccc2)c(=O)c2c1nc1n2CCN1c1ccc(F)cc1,inactive: 3.14%,
COCc1cc(C)nc2sc(C(=O)Nc3ccc(C(=O)OC)cc3)c(N)c12,inactive: -25.7%,
CC1(C)CC23C(=O)CCC(O)C2(C)CCC13 (stereo not given),inactive: -5.85%,
O=C(Nc1ccc(N2CCN(C(=O)c3ccco3)CC2)cc1)C(c1ccccc1)c1ccccc1,,active: 20.6 µM
COC(=O)c1cn(CCOc2ccc(C)cc2)c2ccccc12,,"inconclusive [inhibitor, single point]"
O=C(NC(=S)NNC(=O)c1ccco1)c1ccccc1,,"inconclusive [inhibitor, single point]"

Structure (SMILES),"activity change, negative = growth inhibition",Potency
CC(=O)Nc1ccc(Oc2sc(C(=O)c3ccccc3)c(N)c2C#N)cc1,,"inconclusive [inhibitor, single point]"
O=C1c2ccccc2C(=O)N1CCc1c[nH]c2ccccc12,,"inconclusive [inhibitor, single point]"
CC(Sc1nnc2c(n1)C1CCC2(C)C1(C)C)C(=O)Nc1ccccc1 (stereo not given),,"inconclusive [inhibitor, partial curve]"
CCCCc1nc(C(N)=O)c2[nH]c(=O)n(-c3ccc(OCC)cc3)c2n1,inactive: 17.6%,
Cc1ccc(CN(C(=O)c2ccco2)C(C(=O)NC2CCCC2)c2cccnc2)cc1 (stereo not given),inactive: 11.7%,
CCN1C(=O)c2ccccc2Sc2ccc(NC(=O)COc3ccc(Cl)cc3)cc21,,active: 16.4 µM
CCOC(=O)N1CCN(C(=O)c2ccc(CN(c3ccc(C)c(C)c3)S(C)(=O)=O)cc2)CC1,,"inconclusive [inhibitor, single point]"
CC(C)NC(=O)C1(S(=O)(=O)c2ccccc2)CC=CC1,inactive: 7.92%,
Nc1ncnc2c1C1(CCCCC1)Cc1ccccc1-2,,"inconclusive [inhibitor, single point]"
Cc1ccc(S(=O)(=O)NCc2ccccc2)cc1C(=O)N(C)CC(=O)Nc1ccccc1Br,,"inconclusive [inhibitor, single point]"
Cc1cc(C)n(-c2nc3ccccc3c(=O)n2OC2CCCCC2)n1,,"inconclusive [inhibitor, single point]"
CN(C)S(=O)(=O)N1CCC(Oc2cccc(C(=O)NC3CCCCCC3)c2)CC1,,active: 18.4 µM
CN1CCN(c2ncc3c(n2)CCN(Cc2cc(Br)cs2)C3)CC1,,active: 16.4 µM
C=CCSC1=C(C#N)C(c2ccccc2Cl)C(C(=O)c2cccs2)C(O)(C(F)(F)F)N1 (stereo not given),,"inconclusive [inhibitor, single point]"
Nc1nc(SCc2ccccc2[N+](=O)[O-])c2ncn(Cc3ccccc3)c2n1,,"inconclusive [inhibitor, single point]"
CCOc1ccc(-c2cnc(NCc3ccc(C(F)(F)F)cc3)n2C)cc1,,active: 5.17 µM
CCOc1ccc(-n2c(SCC(=O)Nc3cccc(Cl)c3)nc3c(oc4ccccc43)c2=O)cc1,inactive: 7.63%,
O=C(Nc1cc(S(=O)(=O)N2CCCCC2)ccc1Cl)C1COc2ccccc2O1 (stereo not given),,"inconclusive [inhibitor, single point]"
Nc1ccc2c(c1)C1(CCC2)NC(=O)NC1=O (stereo not given),inactive: -5.64%,
CCOc1ccc(CCN2C(=O)C(=O)N([C@@H](Cc3ccc(O)cc3)CN3CCC[C@@H]3CN3C(=O)C(=O)NC[C@@H]3Cc3ccccc3)C[C@@H]2Cc2ccccc2)cc1,,"inconclusive [inhibitor, single point]"
O=C1NC(=S)CN1c1ccccc1,,"inconclusive [inhibitor, partial curve, poor fit]"
CC(=O)N1CCOc2ccc(S(=O)(=O)NCc3ccc(C)cc3)cc21,,"inconclusive [inhibitor, single point]"
c1cc2c(cc1CN1CCN(C3CCCCCC3)CC1)OCO2,inactive: -17.1%,
O=C(NC1CCNCC1)C1CCCCC1,inactive: -0.437%,

Structure (SMILES),"activity change, negative = growth inhibition",Potency
CN1CCN(c2ccccc2NC(=S)NC(=O)c2cc3ccccc3o2)CC1,,"inconclusive [inhibitor, single point]"
COc1ccc(C2CC(c3ccccc3OC(C)=O)=NN2C(=O)/C=C/c2ccccc2)cc1OC (stereo not given),,"inconclusive [inhibitor, single point]"
Cn1c(C(=O)NCc2cccs2)cc2oc3ccccc3c21,,"inconclusive [inhibitor, single point]"
CCN(CC)C(=O)c1[nH]cnc1C(=O)NCc1ccc(CNC(=O)OC(C)(C)C)cc1,,"inconclusive [inhibitor, single point]"
CN(C(=O)COc1ncnc2c1cnn2-c1ccccc1)C1CCCCC1,,"inconclusive [inhibitor, single point]"
O=c1[nH]/c(=C\c2ccc([N+](=O)[O-])cc2)c(=O)[nH]/c1=C\c1ccc([N+](=O)[O-])cc1,,"inconclusive [inhibitor, single point]"
CCCC[n+]1c(C)sc2ccc(C)cc21,,"inconclusive [inhibitor, partial curve]"
CCOc1ccc(/C=C2\SC(=S)N(CCC(=O)N(CCO)c3ccccc3)C2=O)cc1,,"inconclusive [inhibitor, single point]"
COc1ccccc1/C=C/CN1CCC(n2nccc2NC(=O)CCc2ccccc2)CC1,,active: 14.6 µM
O=[N+]([O-])c1ccc(F)c(CN2CCN(c3ncc(Cc4ccccc4)cn3)CC2)c1,,"inconclusive [inhibitor, single point]"
S=C1NCN(Cc2ccco2)CN1CCc1ccccc1,,"inconclusive [inhibitor, single point]"
CC(=O)Nc1ccc(S(=O)(=O)NNC(=O)COc2ccc(Cl)cc2Cl)cc1,inactive: -12.6%,
COc1ccc(Cl)cc1NC(=O)c1cc(-c2ccccc2O)n[nH]1,,"inconclusive [inhibitor, single point]"
Cc1ccc(C)c(N2CCN(C(=O)C3CCCCN3S(=O)(=O)c3ccc(F)cc3)CC2)c1 (stereo not given),,"inconclusive [inhibitor, single point]"
CCC(C(N)=O)c1ccccc1 (stereo not given),inactive: 1.54%,
CCCCOc1ccc(S(=O)(=O)Nc2cc(OC)ccc2OC)cc1,,"inconclusive [inhibitor, single point]"
Cc1cccc(N2CCN(C(=O)c3cc4c(=O)oc5ccccc5c4s3)CC2C)c1 (stereo not given),,"inconclusive [inhibitor, single point]"
CCOc1ccc(NC(=O)CSc2ncc(-c3ccc(F)cc3)n2Cc2ccco2)cc1,,"inconclusive [inhibitor, single point]"
CN(CC(=O)Nc1c(Cl)cccc1Cl)C(=O)C1CC(=O)N(Cc2ccccc2)C1 (stereo not given),inactive: 4.64%,
CCCOC(=O)/C(=C\c1ccc([N+](=O)[O-])o1)NC(=O)c1ccccc1,,active: 16.4 µM
COc1ccc2[nH]c(C(=O)N/N=C/c3ccc(OC)c(O)c3)cc2c1,,active: 1.16 µM
Cc1cccc(Nc2nnc(SCC(=O)Nc3ncc(C(F)(F)F)cc3Cl)s2)c1C,,"inconclusive [inhibitor, single point]"

# Source: PubChem BioAssay AID686979 (National Center for Advancing Translational Sciences (NCATS), 2013)
